SMILES strings stand for the structures. The campaign covered roughly 52,000 compounds. About 4,300 (8.3%) were called active. Cut-off read from the data, not from the text of the source: active = survival mostly below about 52% (no sharp cut-off); inactive = mostly above about 56%. The list shows a part of the results.

The test system of the assay is DeltatarO mutant. The assay is described as follows: S. aureus survival, RN4220 and DeltatarO strains – OD600, teichoic acid synthesis inhibitors, primary screen (AID 463173). As to conditions: S. aureus RN4220 wild type/DeltatarO growth, OD600, 18 h, stronger effect = lower value, screened at 18.75 µg/mL (by protocol).
On to `CC(=O)Nc1ccc(NS(=O)(=O)c2ccc3[nH]c4c(c3c2)CCCCC4)cc1`, for which the survival is inactive: 84%.
On to `CCC(=O)Nc1ccc(-c2nn3c(CC)nnc3s2)cc1`, for which the survival was inactive: 100%.
For `CC(C)C(=O)N1c2nc(C(C)C)nn2C2(CCCCC2)[C@@H]2CCCC[C@@H]21` the value was inactive: 69%; for `Cc1ccc(Nc2nc3ccccc3c3nnc(C)n23)cc1Cl`, inactive: 63%; for `Cc1cc(C)c2c(=O)cc(CSc3nnc(-c4ccccc4)n3C)[nH]c2c1`, inactive: 95%.
Take `COc1cc(-c2nnc(SCC(=O)Oc3ccccc3)o2)cc(OC)c1OC`: the survival was inactive: 81%.
Next, `Nc1nncn1C(=O)COc1ccc(Cl)cc1`: inactive: 74%; `CC1CN(Cn2[nH]c(=O)ccc2=O)CC(C)O1` (stereo not drawn): inactive: 106%.
In the case of `Cc1ccc(CN2CCN(C3CCN(C(=O)c4ccc(C)cc4)CC3)C(=O)C2=O)cc1`, the survival is inactive: 78%.
Consider `CCOC(=O)c1cnc2cc(-c3ccc(C)cc3)nn2c1C`, for which the survival was inactive: 74%.
For `CC(C)(C)c1cc(C(C)(C)C)c2oc(=O)c(-c3nc4ccc(C(=O)O)cc4[nH]3)cc2c1` the value was inactive: 72%; for `CCOC(=O)c1ccccc1NC(=O)CSc1cc(C)[nH]c(=O)n1`, inactive: 88%; for `COc1ccc(Cl)cc1NC(=O)CCN1C(=O)c2ccccc2Sc2ncccc21`, inactive: 68%.
As to `CC(=O)c1cccc(NC(=O)CN2C(=O)c3cccnc3Sc3ccccc32)c1`, the survival was inactive: 82%.
Take `O=C(Nc1ccc(N2C(=O)C=CC2=O)cc1Cl)c1ccco1`: the survival was inactive: 100%.
On to `Cc1ccc(C)c(Cn2c(=O)n(Cc3ccco3)c(=O)c3oc4ccccc4c32)c1`, for which the survival was inactive: 97%.
As to `CCc1ccc(NC(=O)Cn2c(=O)n(-c3ccccc3)c(=O)c3ccc(C(=O)NCc4ccc5c(c4)OCO5)cc32)cc1`, the survival was inactive: 112%.
For `CCc1ccccc1NC(=O)c1sc2nc3n(c(=O)c2c1C)CCC3` the value was inactive: 75%; for `COc1cc(CN(C(=O)c2ccc(OC(C)C)cc2)C2CCS(=O)(=O)C2)cc(OC)c1OC` (stereo not drawn), inactive: 88%; for `CCc1ccccc1Nc1ncnc2c1cnn2-c1ccc(Cl)cc1`, inactive: 69%.
As to `CSCCC(NS(=O)(=O)c1cccs1)C(=O)Nc1ccc(C)c(Cl)c1` (stereo not drawn), the survival is inactive: 74%.
Next, `CCOc1ccc(CCNC(=O)c2ccc(CS(=O)(=O)c3ccccc3C)o2)cc1OCC`: inactive: 61%; `CC(=O)c1ccc(NC(=O)CSc2nnc(NC(=O)Nc3ccccc3)s2)cc1`: inactive: 76%; `COc1ccc(Cl)cc1NC(=O)c1ncn(-c2ccccc2)n1`: inactive: 53%.
As to `CCc1ccc(-c2cc(C)no2)cc1S(=O)(=O)Nc1ccc(C)cn1`, the survival is inactive: 55%.
With `Cc1cccc(-c2nnn3c2nc(NCc2ccccc2)c2ccccc23)c1`, the survival is inactive: 97%.
Next, `CNC(=O)C1CCN(Cc2cc3ccccc3n2Cc2cccc(C)c2)CC1`: inactive: 76%.
Next, `CC(C)CCNC(=O)C1CCN(S(=O)(=O)c2cccc3nsnc23)CC1`: inactive: 94%; `Cc1ccccc1OCc1ccc(-c2nc(C#N)c(N3CCN(c4ccccc4)CC3)o2)o1`: inactive: 91%.
With `O=C(NCCCc1nc2ccccc2n1Cc1ccccc1)C1CCCCC1`, the survival is inactive: 83%.
In the case of `CCOc1ccc(CNC(=O)c2ccc(NC(=O)N3CCSc4ncccc43)cc2)cc1OC`, the survival is inactive: 84%.
On to `COc1cccc(Cn2c(C)c(CNCc3ccccc3Cl)c(C(=O)O)c2C)c1`, for which the survival is inactive: 77%.
Consider `CN(C)c1cc2c(cc1NC(=O)c1ccc(F)cc1)n(C)c(=O)n2C`, for which the survival was inactive: 104%.
As for `CC(=O)Nc1ccc(/C(C)=N/NC2=NCCN2)cc1Br`, the survival was inactive: 88%.
Next, `CC(C)N(Cc1ccccc1)C(=O)CN1C(=O)COc2ccc(S(=O)(=O)N3CCCCCC3)cc21`: inactive: 88%.
Next, `CCN(C(=O)c1cnc(N2CCOCC2)c2ccccc12)c1cc(C)ccc1C`: inactive: 94%.
With `COC(=O)C1C(=O)C2=C(CC1C)Nc1ccccc1NC2c1cc(F)ccc1F` (stereo not drawn), the survival is inactive: 82%.
For the molecule `O=C(O)c1ccc2c(c1)N(Cc1ccc(F)cc1Cl)C(=O)c1ccccc1S2`, the survival is inactive: 67%.
`COc1ccc(CCNC(=O)c2cc(S(=O)(=O)N3CCCC(C)C3)cn2C)cc1OC` (stereo not drawn): the survival is active: 47%.
Turning to `COc1ccc(NC(=O)CCS(=O)(=O)c2nc(-c3ccc4c(c3)OCO4)cc(C(F)(F)F)n2)c(OC)c1`, the survival is inactive: 91%.
Turning to `Cc1cc2ccccc2n2c(SCC(=O)Nc3cccc(C(F)(F)F)c3)nnc12`, the survival is inactive: 67%.
For the molecule `CCOC(=O)c1ccc(NC(=O)CSc2nccn2Cc2ccc(OC)cc2)cc1`, the survival is inactive: 79%.
Next, `Cc1cc(C)cc(C(=O)Nc2nnc3n2CCS3)c1`: inactive: 77%.
Next, `CC(=O)c1cccc(NC(=O)c2c(C)nn(-c3ccc(F)cc3)c2-n2cccc2)c1`: inactive: 112%; `COC(=O)c1cc(NC(=O)c2ccc3c(c2)N(Cc2cccc(Cl)c2)C(=O)c2ccccc2S3=O)cc(C(=O)OC)c1` (stereo not drawn): inactive: 73%.
Next, `CCCCCN1C(C(=O)c2ccccc2)=C(NC(C)=O)c2ccccc2S1(=O)=O`: inactive: 58%.
`O=C(CSc1ncc2c(n1)-c1cc(Cl)ccc1N(Cc1ccccc1F)S2(=O)=O)Nc1cccc(C(F)(F)F)c1`: the survival is inactive: 73%.
Take `CCOc1ccccc1NC(=O)c1cnc(N2CCOCC2)c2ccccc12`: the survival was inactive: 80%.
Next, `COc1ccc(OCc2nc3c4c(-c5ccc(OC)cc5)c(-c5ccc(OC)cc5)oc4ncn3n2)cc1`: inactive: 70%.
For `CNc1oc(-c2ccc(COc3ccc(C)cc3)o2)nc1C#N` the value was inactive: 77%.
Turning to `Cc1cccc(CNC(=O)c2sc3ncnc(N(C)C4CCCCC4)c3c2C)c1`, the survival is active: 46%.
For `O=C(C1CC1)N1CCN(c2nc3c(F)cc(F)cc3s2)CC1` the value was inactive: 122%; for `Cc1nn(-c2ccccc2)c2nc(C3CC3)cc(C(=O)NCc3ccccc3Cl)c12`, inactive: 55%; for `COc1ccc(C)cc1NC(=O)CCNS(=O)(=O)c1cccc2nonc12`, active: 43%.
Consider `O=C(CSc1ncn[nH]1)Nc1ccc(F)cc1`, for which the survival was inactive: 72%.
Take `Cc1cc(Cl)ccc1OCC(=O)N(Cc1ccc(N(C)C)cc1)CC1CCCO1` (stereo not drawn): the survival is inactive: 99%.
In the case of `CC(C)Nc1ccc(-c2nc(-c3ccccn3)no2)cc1[N+](=O)[O-]`, the survival was active: 38%.
Next, `CCOc1ccccc1NC(=O)c1ccc2c(Cl)c3c(nc2c1)CCCC3`: active: 35%.

For the origin of these results see PubChem BioAssay AID463173 (ICCB-Longwood Screening Facility, Harvard Medical School, 2010).
